Reference: the supplement of paper PMC12217912
Some of the results follow. The full chains were built here from the parent and the listed change. Values near 0.05 are background.

B1: TEV protease; numbered along this chain (parent)
chain: MGESLFKGPRDYNPISSSICHLTNESDGHTTSLYGIGFGPFIITNKHLFRRNNGTLVVQSLHGVFKVKDTTTLQQHLVDGRDMIIIRMPKDFPPFPQKLKFREPQREERICLVTTNFQTKSMSSMVSDTSCTFPSGDGIFWKHWIQTKDGQCGSPLVSTRDGFIVGIHSASNFTNTNNYFTSVPKNFMELLTNQEAQQWVSGWRLNADSVLWGGHKVFMVKPEEPFQPVKEATQL

Variants of: B1
Assay: raw area under fraction-flipped curve 0-4 h after induction (AUC4h, not background-subtracted), DNA-recorder readout of cleavage of the substrate (dimensionless); higher = more cleavage of the substrate by the protease variant
Settings: temperature: 34 °C; time window: 0-4 h after rhamnose induction
Method: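 In vivo DNA recorder in E. coli TOP10(DE3) ΔrhaA at 34 °C. Each TEVp single-site mutant (parent TEVp 0) is paired with a single-site variant of the 7-mer TEVs (canonical ENLYFQ|S). The substrate sits between flexible linkers in a Bxb1-sfGFP-TEVs-SsrA fusion, so cleavage stabilises Bxb1 and speeds flipping of a recombination array, read by NGS. The value is the raw area under the fraction-flipped curve over 0-4 h after rhamnose induction (AUC4h), with ≥20 reads per time point. It is not background-subtracted; inactive controls average about 0.047.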
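Note: Bxb1 expression induced with 0.2% (w/v) L-rhamnose at OD600 near 0.5, cultures sampled hourly, flipped fraction per protease–substrate barcode pair counted by paired-end Illumina sequencing.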

| Variant | area with substrate ENLYFQC | area with substrate ENLYFQF | area with substrate ENLYFQG | area with substrate ENLYFQH | area with substrate ENLYFQK | area with substrate ENLYFQL | area with substrate ENLYFQM | area with substrate ENLYFQS | area with substrate ENLYFQV | area with substrate ENLYFQW | area with substrate ENLYFQE | area with substrate ENLYFQI | area with substrate ENLYFQN | area with substrate ENLYFQQ | area with substrate ENLYFQR | area with substrate ENLYFQT | area with substrate ENLYFQY | area with substrate ENLYFQD | area with substrate ENLYFQP |
| --- | --- | --- | --- | --- | --- | --- | --- | --- | --- | --- | --- | --- | --- | --- | --- | --- | --- | --- | --- |
| T192G | 0.118 | 0.0646 | 0.104 | 0.0645 | 0.0586 | 0.0675 | 0.0614 | 0.0862 | 0.0635 | 0.0503 | – | – | – | – | – | – | – | – | – |
| T192I | 0.106 | – | 0.0821 | 0.0807 | 0.0592 | 0.0747 | 0.0851 | 0.094 | 0.0592 | 0.0707 | 0.06 | 0.0574 | 0.0922 | 0.106 | 0.0592 | 0.0694 | 0.0838 | – | – |
| K216G | 0.0683 | – | 0.0628 | 0.056 | 0.0607 | 0.0812 | 0.0686 | 0.0694 | 0.0377 | 0.0543 | – | 0.0549 | 0.0467 | 0.0274 | 0.0548 | 0.0483 | 0.0344 | 0.0534 | – |
| K216S | 0.0986 | – | – | – | – | 0.0467 | 0.0711 | 0.095 | 0.07 | – | – | – | – | – | – | – | – | 0.0702 | – |
| K216F | 0.0894 | – | 0.0857 | 0.0702 | 0.0658 | 0.058 | 0.075 | 0.0829 | – | – | – | 0.0473 | 0.0581 | – | – | 0.0647 | – | 0.059 | – |
| W144M | 0.0994 | 0.0549 | – | – | – | 0.0498 | 0.0747 | 0.0884 | 0.0514 | 0.0636 | – | 0.0608 | 0.0701 | 0.0722 | 0.0522 | 0.0587 | 0.077 | – | 0.0588 |
| W144P | 0.0853 | – | 0.0809 | 0.0713 | 0.0555 | 0.0537 | – | 0.0852 | 0.0703 | – | – | 0.0556 | 0.0642 | – | 0.052 | 0.0556 | 0.0688 | – | – |
| C152A | 0.0892 | 0.0812 | 0.0626 | 0.0668 | 0.0577 | 0.0442 | – | 0.0759 | 0.0613 | 0.0555 | – | 0.0604 | 0.0575 | – | 0.0555 | 0.0566 | – | 0.0656 | – |
| C152V | 0.0737 | – | 0.0551 | – | 0.0589 | 0.0516 | – | 0.0622 | 0.0663 | 0.0609 | 0.0619 | 0.0541 | 0.0722 | 0.0497 | 0.0573 | 0.06 | 0.0573 | – | – |
| C152K | 0.0094 | – | – | 0.084 | 0.0563 | 0.0537 | – | 0.0621 | – | 0.0588 | – | 0.0634 | – | – | 0.0841 | 0.0525 | 0.0659 | – | – |
| G136L | 0.113 | 0.0739 | 0.113 | 0.0882 | 0.0678 | 0.0545 | – | 0.104 | 0.0767 | 0.0716 | – | 0.0579 | 0.104 | 0.0705 | 0.061 | 0.0702 | – | 0.0597 | – |
| G136N | 0.095 | – | 0.0735 | – | – | 0.0626 | 0.106 | 0.112 | 0.0633 | 0.0684 | – | 0.058 | 0.107 | – | 0.0613 | 0.0737 | 0.0921 | 0.0744 | 0.0686 |
| A232N | 0.107 | – | – | 0.105 | 0.0716 | 0.0405 | 0.131 | 0.11 | 0.0587 | 0.0692 | – | 0.0741 | 0.0574 | – | – | 0.0469 | – | 0.0929 | 0.0495 |
| G8P | – | – | 0.103 | 0.0998 | 0.0844 | 0.0738 | – | 0.116 | 0.0794 | – | – | – | 0.0781 | – | 0.0316 | 0.0477 | 0.0777 | 0.0748 | 0.0507 |
| R81T | 0.0859 | 0.0552 | 0.0778 | – | 0.0708 | 0.0605 | – | 0.0765 | – | 0.0645 | – | 0.0621 | 0.0563 | – | 0.0495 | 0.0574 | 0.0517 | – | 0.0666 |
| R81N | 0.104 | – | 0.0835 | 0.0796 | 0.0588 | 0.0576 | 0.0645 | 0.0852 | 0.0522 | 0.0566 | – | 0.0539 | – | – | 0.0528 | 0.0663 | – | 0.0701 | – |
| W203A | 0.0547 | 0.0584 | 0.0748 | – | 0.0672 | – | 0.0622 | 0.074 | 0.0478 | 0.0562 | – | 0.0543 | 0.0673 | – | 0.0645 | 0.0616 | – | 0.0487 | – |
| L56Y | 0.057 | 0.0449 | 0.0404 | 0.0579 | 0.0489 | 0.0513 | 0.0561 | 0.0582 | 0.0529 | 0.0545 | 0.0755 | – | 0.0683 | – | 0.0555 | 0.0464 | 0.0239 | 0.0746 | 0.0684 |
| P134H | 0.0962 | 0.0606 | 0.0842 | 0.0705 | 0.0552 | 0.0622 | 0.0726 | 0.0764 | 0.072 | 0.0494 | – | 0.0471 | 0.0623 | – | 0.0557 | 0.062 | 0.0831 | 0.0619 | 0.048 |
| V64T | 0.107 | – | 0.0825 | – | – | 0.0596 | – | 0.109 | – | 0.0683 | – | 0.0688 | – | – | – | 0.0742 | – | – | – |
| V64C | 0.12 | 0.0795 | 0.0853 | 0.101 | 0.0743 | 0.0794 | – | 0.0976 | – | 0.0674 | – | 0.0668 | 0.0736 | – | 0.0545 | 0.0646 | 0.0853 | 0.0713 | 0.0574 |
| V64K | 0.129 | – | 0.102 | 0.0668 | – | – | – | 0.106 | 0.0747 | 0.0711 | – | 0.0543 | – | – | 0.0604 | 0.0688 | – | 0.0815 | 0.0641 |
| L112F | 0.111 | 0.101 | 0.0946 | 0.0895 | – | – | – | 0.0952 | 0.0277 | 0.0729 | 0.0545 | 0.08 | 0.0602 | – | 0.0569 | 0.0517 | – | 0.0626 | 0.0288 |
| L112H | 0.0555 | – | 0.0816 | – | 0.065 | 0.0504 | 0.0608 | 0.0718 | 0.0557 | 0.0603 | – | 0.0592 | 0.0866 | – | 0.0741 | 0.0613 | 0.0591 | 0.0553 | 0.0619 |
| L112Y | 0.067 | 0.0443 | 0.0584 | – | – | 0.0631 | – | 0.0705 | – | 0.0568 | – | 0.052 | 0.069 | – | 0.0513 | – | 0.0656 | 0.0541 | 0.0519 |
| L112I | 0.092 | 0.0547 | 0.0899 | – | – | 0.0696 | – | 0.0992 | – | 0.0416 | 0.0673 | – | 0.0797 | – | 0.0571 | 0.0685 | 0.0843 | 0.0612 | 0.0668 |
| P184L | 0.0622 | 0.0762 | – | 0.0594 | 0.0379 | 0.0481 | 0.0532 | 0.0622 | 0.0655 | 0.062 | – | 0.0532 | 0.054 | 0.0446 | – | – | 0.0564 | – | 0.056 |
